Laboratory results published in paper PMC12136788.
The other results are listed elsewhere or left out.

B1: 42222520_42222640_2667_3pUTR_ENSMUSG00000037287_ENSMUST00000125995|mouse|control|control (ssRNA)
RNA: GGGAGUUCUACAGUCCGACGAUCAAACCAUCCAGAUUAACAAAGAAUGGAAGGCCAAAGAAAAAGAUUUCAGAAUAGGAGAGUAGGUGAGGGGCUGUGUCAAAGGUCAAGUGCUUUAUACACACACACCCCUGCAAAAAACACCAACAGAGGAUUGAGCAUCA
B2: chr3:131220538:131220539:-_ENSG00000114686_ENST00000264995|hu_mus|motif|central (ssRNA)
RNA: GGGAGUUCUACAGUCCGACGAUCUUCUUCAGAAAGAUGUUCAUCCCACCAAGUACUACUCUUGCUGUGGAGAUUUCGGACAAAGAACAAGAUAUUCUUUCUUCUCUCUAAGCCGGGGUCAGCACCUAGGCCUCUGGCGCCACACAACAGAGGAUUGAGCAUCA
B3: chr7:30977587:30977588:-_ENSMUSG00000001794_ENSMUST00000108196|mus_hu|FALSE|FALSE (ssRNA)
RNA: GGGAGUUCUACAGUCCGACGAUCCAGCUGGGCAAAGAGUCUCCGGAACUGCCGGACCUCCUCACUCUCGUUGGCCUCAAUGUUGGAGUAAUGUGUGCGUGGGGGCGGGGGCUCCGGGUUGUACUGCGCAGCCGCCUCGCUGAUCAACAGAGGAUUGAGCAUCA
B4: chr16:75674161:75674162:-_ENSG00000065427_ENST00000302445|hu_mus|motif|central (ssRNA)
RNA: GGGAGUUCUACAGUCCGACGAUCGCGGCCUGCCACUUUGAGGGUGACAUCAGUCAGGUGGUCCCCAGGCUGCAGGUGACGGUAUUCUUGGAUGAACUGAGUGAGUGAGAUGUCCACGUGGAACUUGUGUGGGUACGGAUCCUCCAACAGAGGAUUGAGCAUCA
B5: chr2:29016751:29016752:+_ENSG00000213639_ENST00000296122|perfect_dup|motif|central (ssRNA)
RNA: GGGAGUUCUACAGUCCGACGAUCUUUAGCAAAAAAUUCAUAUCCAUCUUCCACCACCUGAUGAGCUCGACAAAUCAAAUCGGAAUCAUGACGAUUCAGAAAUUUACUGACUACAUCAGCUCCAAAAGUAAAGGAAACACCACGCAACAGAGGAUUGAGCAUCA
B6: chr14:22664367:22664368:+_ENSMUSG00000021771_ENSMUST00000022293|mus_hu|motif|central (ssRNA)
RNA: GGGAGUUCUACAGUCCGACGAUCAGAGAGUGUAAGCUUCACACCAGGCCUCAGAGUCUGAGUAUAGCCUACUCCAAUUAAGCGGGAGUUGUUGACUUUUGCAGAAAUGGAAGCAGUGGGAUCCAACUGAUAUUUAGCUGCAAUCAACAGAGGAUUGAGCAUCA
B7: chr2:91460361:91460362:+_ENSMUSG00000040549_ENSMUST00000099716|mus_mus|FALSE|FALSE (ssRNA)
RNA: GGGAGUUCUACAGUCCGACGAUCUGUGUACAAUGGCCUGCAGCGGCCGCUUCACACUACAGGGCUUCUAGAUCAGUAACUAAAGCUGCAGAGUGCCGAGGGUGGGCAGCUUCAUUUGCGACUGCUCUUUAUUCUCUCCAGUCUCAACAGAGGAUUGAGCAUCA
B8: chr8:103876086:103876087:-_ENSG00000155096_ENST00000347770|hu_hu|FALSE|FALSE (ssRNA)
RNA: GGGAGUUCUACAGUCCGACGAUCCGCCGUGAGAUAACGGCCCAAAGAGUCGGGUAAAGCGUCUUCUCUUUUUCGGCGGAAUUUUUAAAGAGGGAUGUGGUUACCUUGAGCAGAAAUACCCAAGGCGGCCUGGGCCAUAGGCUGCAACAGAGGAUUGAGCAUCA
B9: chr1:29070155:29070156:+_ENSG00000198492_ENST00000541996|hu_mus|FALSE|FALSE (ssRNA)
RNA: GGGAGUUCUACAGUCCGACGAUCACAGCAGAUUUCAUCUCUGCAACUCCACAGAAGUGUCCACUGCCGUUGACACUGAAAAGUAAGUACACGGGACCCUUCCCAUUCAUGGAACGAUAGGCGGCAUCCAGUCUCUUGUUACCACAACAGAGGAUUGAGCAUCA
B10: 181043437_181043557_507_CDS_ENSMUSG00000027581_ENSMUST00000103045|mouse|control|control (ssRNA)
RNA: GGGAGUUCUACAGUCCGACGAUCCUCAGCUGCCUCCAGCCGCUUCUGCAGCUCUUCCAAGGAAGCAUCCUUCCUCUUGGGAGGAGAAGAGAGCACAGGGCUCUCUGGAGAUAGGUCAGAAGGAGACUUGAGGAUGACCUCGAACAACAGAGGAUUGAGCAUCA
B11: 171624459_171624579_2671_3pUTR_ENSMUSG00000026678_ENSMUST00000027997|mouse|control|control (ssRNA)
RNA: GGGAGUUCUACAGUCCGACGAUCGAUGGCAUAAUUUGGUAAAUCUCUAGAAGGGAGUGCUUGUUAGCUUAUCAAUUGAUUUGUUAAUGGAUGCCUACUGCUCUUCAGGAAAUAAUCGAAUCCUUCUCAUAGAAAUGGAUUUUACAACAGAGGAUUGAGCAUCA
B12: chrX:71549762:71549763:+_ENSMUSG00000019087_ENSMUST00000019231|mus_mus|motif|central (ssRNA)
RNA: GGGAGUUCUACAGUCCGACGAUCCCAGUGUACCACUCACUCUUAACACAUCACCCCUCCCCCCCAAAAAACAUAACAGCGGAGCUGGACAGACAGUCAAGUAGUCUUUCCACACCUCGCAAAUUCAAGGAACCUCAAGUUCAUCAACAGAGGAUUGAGCAUCA
B13: 37435813_37435933_5862_3pUTR_ENSMUSG00000026915_ENSMUST00000028279|mouse|control|control (ssRNA)
RNA: GGGAGUUCUACAGUCCGACGAUCUACUGAUUCUGAUAUCCUAGCUCCUUGAACAAGACAGUGCCCUGUCAUUUUGACUCUCCUUAGAUAGUGUUCCUACAACUGAAUUGUUAUAUUCAAGCAGGUGCCUCUGUUAUGUAUAAACAACAGAGGAUUGAGCAUCA
B14: 77214880_77227188_734_CDS_ENSG00000127947_ENST00000248594|human|control|control (ssRNA)
RNA: GGGAGUUCUACAGUCCGACGAUCGAAGUAGUCUGUUCUUGCUUGUUCAUCCUCACAAGAAAUUUUAAAUGGUGCAAACGUUAUGGGGUCUUCUCCAUACAAAGGCCAAUAGCGCUCACAUUUUUUCCUUCCCAUCUCAAAUUCCAACAGAGGAUUGAGCAUCA
B15: chr2:76468371:76468372:-_ENSMUSG00000002731_ENSMUST00000002808|mus_hu|FALSE|FALSE (ssRNA)
RNA: GGGAGUUCUACAGUCCGACGAUCUGAGGAGAUAAUUAAAUCUGGAGUGUUGAUGGAAUCUAUGAAGAGAUUUAGAAACAAGACAUAAACACUACGGUAAAAGUUUUACUUGGGAAGGGGCCAGAGGGGAACUUUUUAUGUGCUCAACAGAGGAUUGAGCAUCA
B16: chr4:95690885:95690886:+_ENSMUSG00000028572_ENSMUST00000156910|mus_hu|FALSE|FALSE (ssRNA)
RNA: GGGAGUUCUACAGUCCGACGAUCUUUAGAAAAUGUUAAAUACCAUGCUAAAAUAUUUUCAAAGGCUUAUUUUAUUUUACCAGAAGUCACAGGCAAGCAGACACUACAAGAAUAUAUGAAAAUGAAACUCAACAAUAUAACUGUCAACAGAGGAUUGAGCAUCA
B17: 56308798_56309970_2096_CDS_ENSG00000134852_ENST00000309964|human|control|control (ssRNA)
RNA: GGGAGUUCUACAGUCCGACGAUCACUCUGAGUUGAUGUACUCUGUAAAGUCUGUUGUUGUAUCAUGUGCUGAGUUGUGCCAAUGUGUCCAGUAUUCAUUCCACUUUGAAUCUGGUUAGUAGGAACAACUUGGCCUUGCAUAUUCAACAGAGGAUUGAGCAUCA
B18: 31027585_31033313_607_CDS_ENSMUSG00000000194_ENSMUST00000056433|mouse|control|control (ssRNA)
RNA: GGGAGUUCUACAGUCCGACGAUCAAAGAAGAACUGAAAUGAGACCACCCCGUCAUUCUUGUGAAUUGAGAAGGAUCGCUCUGUGAUAGCCUUUGAGUCCACUGUACUUCGUCCAGCCUUGAAACCAUCGAGGGUUCUCCGAGCCAACAGAGGAUUGAGCAUCA
B19: chr2:216981417:216981418:+_ENSG00000079246_ENST00000392132|hu_hu|hu_hu_hu_mus_True|8_58 (ssRNA)
RNA: GGGAGUUCUACAGUCCGACGAUCCUGAUACUGGUCCUUGCCAGCAAGGGCAUUAUCAGUGCCAUCUGUGCCAUAGAGGACUAAAGCAAUCUCAUCUUUGCUCUCCGAAAAUACCUGUCGUUGGACAAACAUGGUUAUCACUUUCAACAGAGGAUUGAGCAUCA
B20: 85930467_85930587_296_CDS_ENSG00000153904_ENST00000284031|human|control|control (ssRNA)
RNA: GGGAGUUCUACAGUCCGACGAUCCGUCUCCUCGCACACCACGGCCACGUCCUCCACGAAGACGCAGUCCGGAAGGCUCUCGUCGGCCGGCAGCUCCACCACCUGCAGCCCCAGCUUGCUGCCCAGCACGCCCACGUAGAGCUGCAACAGAGGAUUGAGCAUCA
B21: 72132853_72133131_1361_CDS_ENSG00000140829_ENST00000268482|human|control|control (ssRNA)
RNA: GGGAGUUCUACAGUCCGACGAUCAAUUCCUUCUUCGCCCUCCUCACGUCUUCCUCGGCCCCUGGACAGACGCGGGGUGGACCCCAAGUGUCUUCUGUCAUCGGCCCACUCGUUAUAUUUGUAGGAGGGAGUUGGCAGAGGCGUCAACAGAGGAUUGAGCAUCA
B22: 70196805_70196925_1599_CDS_ENSG00000138346_ENST00000358410|human|control|control (ssRNA)
RNA: GGGAGUUCUACAGUCCGACGAUCCUUCACAUAUCCUCUAGACAAAGCAAACAGUGACCUUUCUUCUCCACUUACAAUAACUCUGUCACCUGCCAUUAGAUUUGUGACAGGUAUGGCACCAUGUUUACAUUGGAAAUUAUGUAACAACAGAGGAUUGAGCAUCA

Target: T1, UNK ZnF1-3 (human, UniProt Q9C0B0 31-174)
T1 sequence: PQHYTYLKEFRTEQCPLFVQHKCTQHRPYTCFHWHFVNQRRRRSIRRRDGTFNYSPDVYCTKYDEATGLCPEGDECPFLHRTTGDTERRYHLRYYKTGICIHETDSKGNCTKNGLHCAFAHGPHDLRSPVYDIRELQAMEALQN
Assay: nsRBNS (natural sequence RNA bind-n-seq); RBNS binding buffer (assumed for nsRBNS): 25 mM Tris pH 7.5, 150 mM KCl, 3 mM MgCl2, 0.01% Triton X-100, 500 ug/ml BSA, 20 U/ml SUPERase-In, 4 C; UNK is unkempt and MSI1 is Musashi-1; names of the RNAs are library labels; protein concentration not given here; high values mean tight binding

Binder | binding signal [enrichment R]
B1 | 1.49
B2 | 0.785
B3 | 0.638
B4 | 1.13
B5 | 1.36
B6 | 1.06
B7 | 0.644
B8 | 0.955
B9 | 0.655
B10 | 1.04
B11 | 1.84
B12 | 1.57
B13 | 0.874
B14 | 0.662
B15 | 2.26
B16 | 1.55
B17 | 0.377
B18 | 1.21
B19 | 0.779
B20 | 0.946
B21 | 1.16
B22 | 0.803
